Binding signal data for 32 sequences are collected here from publication PMC12820563, “FoxP3 forms a head-to-head dimer in vivo and stabilizes its multimerization on adjacent microsatellites”.

This is one part of the list.

For the experiment, the target named is T1, MBP-FoxP1dN (Mus musculus, UniProt P58462 326-579).
T1 sequence: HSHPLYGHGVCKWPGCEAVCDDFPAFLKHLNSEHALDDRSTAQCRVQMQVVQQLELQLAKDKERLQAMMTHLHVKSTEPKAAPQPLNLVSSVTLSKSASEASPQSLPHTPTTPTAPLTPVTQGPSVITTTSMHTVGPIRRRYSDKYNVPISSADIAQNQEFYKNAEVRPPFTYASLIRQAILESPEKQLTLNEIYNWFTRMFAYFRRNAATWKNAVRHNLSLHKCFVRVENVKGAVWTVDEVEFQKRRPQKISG
The experiment in a line: PD-seq (MBP pull-down with sequencing); 20 mM Tris-HCl pH 7.5, 100 mM NaCl, 1.5 mM MgCl2, 0.4 uM protein, 0.1 uM dsDNA library, 30 min, room temperature, amylose pull-down; high values mean tight binding. Conditions: protein: recombinant; tags: His6-MBP; chain copies: 2; dsDNA, one strand shown. Put shortly: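 A degenerate double-stranded DNA library, filled in with Klenow, was added at 0.1 µM to 0.4 µM His6-MBP-tagged mouse FoxP3 or FoxP1 fragment lacking the N-terminus, expressed in E. coli. Incubation lasted 30 min at room temperature in Tris pH 7.5 buffer with NaCl and MgCl2, after which complexes were collected on amylose resin, washed three times, digested with proteinase K to free the DNA, barcoded by PCR and sequenced by Illumina. Binding is the pooled-replicate reads-per-million enrichment of pull-down over input.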
Turning to “GATGATTGTTCTCCCAGCTGATGAATTCGTATACTCGAGTAAACAAATTTTCCTAATCTTTCTGTTCAAGCGCCATCTAC”, the binding signal is 1.04 RPM ratio (pull-down/input).
As for “GATGATTGTTCTCCCAGCTGATGAATTAGTAGAATCGAGTAAACAAATTTTCCTAATCTTTCTGTTCAAGCGCCATCTAC”, the binding signal is 0.994 RPM ratio (pull-down/input).
For the sequence “GATGATTGTTCTCCCAGCTGATGAATTCATGTTATCGAGTAAACAAATTTTCCTAATCTTTCTGTTCAAGCGCCATCTAC”, the binding signal is 1.78 RPM ratio (pull-down/input).
Regarding “GATGATTGTTCTCCCAGCTGATGAATTTCGGGGCTCGAGTAAACAAATTTTCCTAATCTTTCTGTTCAAGCGCCATCTAC”, the binding signal is 0.745 RPM ratio (pull-down/input).
In the case of “GATGATTGTTCTCCCAGCTGATGAATTCGTGACTTCGAGTAAACAAATTTTCCTAATCTTTCTGTTCAAGCGCCATCTAC”, the binding signal is 0.886 RPM ratio (pull-down/input).
In the case of “GATGATTGTTCTCCCAGCTGATGAATTACGGTGCTCGAGTAAACAAATTTTCCTAATCTTTCTGTTCAAGCGCCATCTAC”, the binding signal was 0.883 RPM ratio (pull-down/input).
As to “GATGATTGTTCTCCCAGCTGATGAATTAAGTATGTCGAGTAAACAAATTTTCCTAATCTTTCTGTTCAAGCGCCATCTAC”, the binding signal was 0.977 RPM ratio (pull-down/input).
Consider “GATGATTGTTCTCCCAGCTGATGAATTACACATATCGAGTAAACAAATTTTCCTAATCTTTCTGTTCAAGCGCCATCTAC”, for which the binding signal was 1.4 RPM ratio (pull-down/input).
With “GATGATTGTTCTCCCAGCTGATGAATTGTCAATGTCGAGTAAACAAATTTTCCTAATCTTTCTGTTCAAGCGCCATCTAC” the figure was 1.2 RPM ratio (pull-down/input); with “GATGATTGTTCTCCCAGCTGATGAATTTGGGTGCTCGAGTAAACAAATTTTCCTAATCTTTCTGTTCAAGCGCCATCTAC”, 0.895 RPM ratio (pull-down/input).
As to “GATGATTGTTCTCCCAGCTGATGAATTGGTCCGCTCGAGTAAACAAATTTTCCTAATCTTTCTGTTCAAGCGCCATCTAC”, the binding signal was 0.843 RPM ratio (pull-down/input).
With “GATGATTGTTCTCCCAGCTGATGAATTGGCAACCTCGAGTAAACAAATTTTCCTAATCTTTCTGTTCAAGCGCCATCTAC”, the binding signal is 0.912 RPM ratio (pull-down/input).
With “GATGATTGTTCTCCCAGCTGATGAATTATTAACGTCGAGTAAACAAATTTTCCTAATCTTTCTGTTCAAGCGCCATCTAC” the figure was 1.19 RPM ratio (pull-down/input); with “GATGATTGTTCTCCCAGCTGATGAATTCCGTGGTTCGAGTAAACAAATTTTCCTAATCTTTCTGTTCAAGCGCCATCTAC”, 0.818 RPM ratio (pull-down/input).
With “GATGATTGTTCTCCCAGCTGATGAATTCATCAGGTCGAGTAAACAAATTTTCCTAATCTTTCTGTTCAAGCGCCATCTAC”, the binding signal is 0.792 RPM ratio (pull-down/input).
In the case of “GATGATTGTTCTCCCAGCTGATGAATTCAGAGGGTCGAGTAAACAAATTTTCCTAATCTTTCTGTTCAAGCGCCATCTAC”, the binding signal was 0.74 RPM ratio (pull-down/input).
As for “GATGATTGTTCTCCCAGCTGATGAATTAACGTGCTCGAGTAAACAAATTTTCCTAATCTTTCTGTTCAAGCGCCATCTAC”, the binding signal is 0.89 RPM ratio (pull-down/input).
In the case of “GATGATTGTTCTCCCAGCTGATGAATTACGTTGGTCGAGTAAACAAATTTTCCTAATCTTTCTGTTCAAGCGCCATCTAC”, the binding signal is 1.01 RPM ratio (pull-down/input).
Take “GATGATTGTTCTCCCAGCTGATGAATTCCCTTGATCGAGTAAACAAATTTTCCTAATCTTTCTGTTCAAGCGCCATCTAC”: the binding signal is 0.824 RPM ratio (pull-down/input).
For the sequence “GATGATTGTTCTCCCAGCTGATGAATTTTCTGGGTCGAGTAAACAAATTTTCCTAATCTTTCTGTTCAAGCGCCATCTAC”, the binding signal is 0.827 RPM ratio (pull-down/input).
As to “GATGATTGTTCTCCCAGCTGATGAATTACCACTATCGAGTAAACAAATTTTCCTAATCTTTCTGTTCAAGCGCCATCTAC”, the binding signal is 1.18 RPM ratio (pull-down/input).
With “GATGATTGTTCTCCCAGCTGATGAATTGCTGGCTTCGAGTAAACAAATTTTCCTAATCTTTCTGTTCAAGCGCCATCTAC”, the binding signal is 0.933 RPM ratio (pull-down/input).
Consider “GATGATTGTTCTCCCAGCTGATGAATTCAGTGGTTCGAGTAAACAAATTTTCCTAATCTTTCTGTTCAAGCGCCATCTAC”, for which the binding signal was 0.872 RPM ratio (pull-down/input).
“GATGATTGTTCTCCCAGCTGATGAATTTACTCGCTCGAGTAAACAAATTTTCCTAATCTTTCTGTTCAAGCGCCATCTAC”: the binding signal is 1.2 RPM ratio (pull-down/input).
Next, “GATGATTGTTCTCCCAGCTGATGAATTTGGGCGCTCGAGTAAACAAATTTTCCTAATCTTTCTGTTCAAGCGCCATCTAC”: 0.867 RPM ratio (pull-down/input); “GATGATTGTTCTCCCAGCTGATGAATTTGTTATTTCGAGTAAACAAATTTTCCTAATCTTTCTGTTCAAGCGCCATCTAC”: 2.17 RPM ratio (pull-down/input).
Next, “GATGATTGTTCTCCCAGCTGATGAATTGGCGCCTTCGAGTAAACAAATTTTCCTAATCTTTCTGTTCAAGCGCCATCTAC”: 0.93 RPM ratio (pull-down/input).
As to “GATGATTGTTCTCCCAGCTGATGAATTTACAGGCTCGAGTAAACAAATTTTCCTAATCTTTCTGTTCAAGCGCCATCTAC”, the binding signal was 1.08 RPM ratio (pull-down/input).
As for “GATGATTGTTCTCCCAGCTGATGAATTCCTGGGCTCGAGTAAACAAATTTTCCTAATCTTTCTGTTCAAGCGCCATCTAC”, the binding signal was 0.754 RPM ratio (pull-down/input).
“GATGATTGTTCTCCCAGCTGATGAATTAACTTACTCGAGTAAACAAATTTTCCTAATCTTTCTGTTCAAGCGCCATCTAC”: the binding signal was 0.906 RPM ratio (pull-down/input).
For the sequence “GATGATTGTTCTCCCAGCTGATGAATTATGCCACTCGAGTAAACAAATTTTCCTAATCTTTCTGTTCAAGCGCCATCTAC”, the binding signal is 1.06 RPM ratio (pull-down/input).
Consider “GATGATTGTTCTCCCAGCTGATGAATTTTACGATTCGAGTAAACAAATTTTCCTAATCTTTCTGTTCAAGCGCCATCTAC”, for which the binding signal is 0.971 RPM ratio (pull-down/input).
